Source: the supplement of paper PMC11125491
± gives the standard deviation of the averaged measurements. Growth of baker's yeast expressing single-residue variants of Pneumocystis jirovecii dihydrofolate reductase in 8.8 or 44 µM methotrexate (about 75% and 90% inhibition of the wild type). Selection coefficient per generation; 0 = like wild type, above 0 = less sensitive, below 0 = more sensitive or loss of function. No active / inactive call per row; the paper calls resistant above 0.220 (8.8 µM) or 0.243 (44 µM) together with a significance test. At 44 µM about 15% of codons end with one read or none, so the lowest values are floors (replicate rank correlation 0.74; 0.94 at 8.8 µM).

B1: UniProt A0EPZ9; numbered along this chain (parent)
chain: MDWQKSLTLIVALTLSRGIGLKNDLPWKLKSDMMFFSRVTSGLLVTRSTGQMNVVLMGRKTWESLPAHSRPLKNRINVVISRQEVLDLGGGAYHARSLDDALALLSQIYDSTSKIQLNRVFVIGGGELCKAAMEHSRLNRIIATVIHNEVDCDVFFPIDFRSSQSCLPWRKQDHSVLEAWVGSKVPQGKINENGFIYEFEMWIRDI

Variants of: B1
Experiment: selection coefficient against synonymous wild-type codons (log2 per generation); higher = faster growth than wild type
Conditions: with Saccharomyces cerevisiae carrying the variant on a plasmid
Method: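 Pooled growth of yeast carrying single-residue variants of P. jirovecii dihydrofolate reductase (own DFR1 gene intact), two passages at 30 °C, three cultures, sequenced before and after. Codons with under 15 starting reads are left out; codons of one change are averaged.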

Variant | selection coefficient against synonymous wild-type codons (log2) (methotrexate 8.8 µM) | selection coefficient against synonymous wild-type codons (log2) (methotrexate 44 µM)
A67P | 0.0095 ± 0.12 | -0.0335 ± 0.072
A67Q | -0.0505 ± 0.039 | -0.0883 ± 0.16
A67S | -0.0527 ± 0.09 | -0.0972 ± 0.095
A67R | -0.0578 ± 0.066 | -0.0578 ± 0.1
A67W | -0.356 ± 0.14 | -0.259 ± 0.099
A67D | 0.00635 ± 0.041 | -0.0506 ± 0.14
A67V | -0.102 ± 0.083 | -0.0942 ± 0.19
A67L | -0.0794 ± 0.087 | -0.022 ± 0.088
A67N | -0.12 ± 0.17 | 0.0523 ± 0.085
A67M | -0.13 ± 0.037 | -0.127 ± 0.15
A67T | -0.0397 ± 0.067 | -0.00687 ± 0.082
A67E | 0.0794 ± 0.061 | 0.0266 ± 0.015
A67G | -0.164 ± 0.045 | -0.107 ± 0.094
A67K | 0.0243 ± 0.071 | 0.035 ± 0.032
A67F | -0.0873 ± 0.16 | -0.0323 ± 0.15
L72D | -0.446 ± 0.12 | -0.284 ± 0.029
L72K | -0.43 ± 0.13 | -0.207 ± 0.11
L72M | 0.284 ± 0.022 | 0.323 ± 0.055
L72R | -0.505 ± 0.047 | -0.221 ± 0.08
L72G | -0.523 ± 0.062 | -0.285 ± 0.12
L72W | 0.0671 ± 0.07 | 0.0548 ± 0.099
L72T | 0.0449 ± 0.12 | 0.203 ± 0.1
L72C | 0.26 ± 0.027 | 0.318 ± 0.064
L72I | 0.204 ± 0.029 | 0.194 ± 0.029

Variant | selection coefficient against synonymous wild-type codons (log2) (methotrexate 8.8 µM) | selection coefficient against synonymous wild-type codons (log2) (methotrexate 44 µM)
L72V | 0.197 ± 0.061 | 0.235 ± 0.041
L72H | -0.0509 ± 0.066 | 0.0715 ± 0.21
L72Y | 0.47 ± 0.052 | 0.588 ± 0.077
L72F | 0.339 ± 0.017 | 0.394 ± 0.013
L72Q | 0.108 ± 0.073 | 0.219 ± 0.089
L72N | -0.166 ± 0.18 | 0.069 ± 0.17
L72P | 0.00245 ± 0.061 | 0.0929 ± 0.089
L72E | -0.492 ± 0.04 | -0.354 ± 0.048
L72A | 0.227 ± 0.064 | 0.373 ± 0.065
L72S | -0.326 ± 0.14 | -0.124 ± 0.14
R70V | -0.0738 ± 0.088 | -0.107 ± 0.058
R70C | -0.223 ± 0.019 | -0.227 ± 0.06
R70Y | -0.171 ± 0.16 | -0.126 ± 0.041
R70K | 0.078 ± 0.041 | 0.0719 ± 0.095
R70L | 0.0146 ± 0.041 | -0.0211 ± 0.12
R70H | -0.312 ± 0.22 | -0.149 ± 0.054
R70D | -0.00152 ± 0.07 | -0.00243 ± 0.1
R70E | 0.101 ± 0.055 | 0.093 ± 0.021
R70N | -0.303 ± 0.073 | -0.0982 ± 0.095
R70I | -0.174 ± 0.064 | -0.0237 ± 0.0034
R70W | -0.17 ± 0.043 | -0.0985 ± 0.056
R70P | 0.0286 ± 0.09 | 0.0761 ± 0.17
R70M | -0.179 ± 0.098 | -0.222 ± 0.2
R70G | -0.0908 ± 0.091 | -0.127 ± 0.17

Variant | selection coefficient against synonymous wild-type codons (log2) (methotrexate 8.8 µM) | selection coefficient against synonymous wild-type codons (log2) (methotrexate 44 µM)
R70A | -0.199 ± 0.12 | -0.122 ± 0.16
R70S | -0.157 ± 0.079 | -0.155 ± 0.14
R70T | -0.278 ± 0.14 | -0.0786 ± 0.097
R70Q | -0.188 ± 0.094 | -0.195 ± 0.1
S69N | -0.0749 ± 0.031 | -0.115 ± 0.15
S69V | -0.0653 ± 0.0087 | -0.0855 ± 0.13
S69Y | 0.225 ± 0.092 | 0.286 ± 0.053
S69A | 0.00977 ± 0.079 | 0.00906 ± 0.081
S69H | 0.0718 ± 0.026 | -0.11 ± 0.12
S69E | 0.325 ± 0.051 | 0.334 ± 0.036
S69C | 0.139 ± 0.033 | 0.13 ± 0.081
S69T | 0.0223 ± 0.067 | -0.00104 ± 0.098
S69W | 0.378 ± 0.011 | 0.4359 ± 0.0018
S69I | 0.0686 ± 0.058 | 0.0598 ± 0.12
S69G | -0.0928 ± 0.049 | -0.115 ± 0.085
S69R | -0.1 ± 0.089 | -0.0258 ± 0.15
S69P | -0.126 ± 0.067 | -0.118 ± 0.1
S69Q | 0.126 ± 0.045 | 0.117 ± 0.049
S69L | 0.302 ± 0.055 | 0.322 ± 0.072
S69F | 0.207 ± 0.029 | 0.268 ± 0.0089
S69D | 0.363 ± 0.029 | 0.406 ± 0.028
S69K | -0.0229 ± 0.066 | -0.174 ± 0.16
S69M | 0.383 ± 0.0098 | 0.407 ± 0.017
H68P | -0.293 ± 0.1 | -0.0748 ± 0.078

Variant | selection coefficient against synonymous wild-type codons (log2) (methotrexate 8.8 µM) | selection coefficient against synonymous wild-type codons (log2) (methotrexate 44 µM)
H68M | -0.244 ± 0.018 | -0.0649 ± 0.039
H68S | -0.0281 ± 0.05 | -0.00282 ± 0.061
H68K | -0.045 ± 0.06 | -0.0817 ± 0.11
H68A | -0.102 ± 0.1 | -0.146 ± 0.12
H68D | 0.129 ± 0.015 | 0.108 ± 0.088
H68E | 0.0509 ± 0.03 | 0.0379 ± 0.056
H68Y | -0.0261 ± 0.12 | 0.0457 ± 0.029
H68G | -0.0543 ± 0.038 | -0.0611 ± 0.084
H68W | -0.0604 ± 0.032 | -0.104 ± 0.056
H68I | -0.179 ± 0.15 | -0.124 ± 0.0071
H68N | 0.0281 ± 0.073 | 0.135 ± 0.068
H68F | -0.134 ± 0.045 | -0.0796 ± 0.13
H68C | -0.032 ± 0.048 | -0.153 ± 0.23
H68Q | -0.0885 ± 0.038 | -0.1 ± 0.18
H68R | -0.166 ± 0.064 | -0.134 ± 0.077
H68L | -0.221 ± 0.082 | -0.161 ± 0.11
H68V | -0.202 ± 0.076 | -0.107 ± 0.054
H68T | -0.078 ± 0.078 | -0.0665 ± 0.13
K73G | -0.183 ± 0.1 | -0.136 ± 0.14
K73D | -0.0142 ± 0.022 | -0.062 ± 0.15
K73E | 0.0706 ± 0.036 | 0.0313 ± 0.065
K73L | -0.246 ± 0.099 | -0.225 ± 0.15
K73H | -0.0199 ± 0.064 | -0.109 ± 0.09
K73C | -0.23 ± 0.068 | -0.182 ± 0.14

Variant | selection coefficient against synonymous wild-type codons (log2) (methotrexate 8.8 µM) | selection coefficient against synonymous wild-type codons (log2) (methotrexate 44 µM)
K73F | -0.413 ± 0.09 | -0.165 ± 0.11
K73A | -0.0478 ± 0.065 | -0.0339 ± 0.058
K73I | -0.205 ± 0.11 | -0.177 ± 0.046
K73M | -0.279 ± 0.025 | -0.084 ± 0.04
P71R | 0.334 ± 0.038 | 0.426 ± 0.051
P71G | 0.265 ± 0.034 | 0.304 ± 0.041
P71V | 0.324 ± 0.021 | 0.382 ± 0.024
P71T | 0.365 ± 0.033 | 0.433 ± 0.04
P71I | 0.291 ± 0.035 | 0.344 ± 0.12
P71A | 0.289 ± 0.029 | 0.325 ± 0.05
P71W | 0.0889 ± 0.029 | 0.154 ± 0.056
P71Q | 0.362 ± 0.025 | 0.448 ± 0.023
P71E | 0.223 ± 0.04 | 0.332 ± 0.05
P71C | 0.319 ± 0.026 | 0.344 ± 0.082
P71M | 0.293 ± 0.011 | 0.377 ± 0.04
P71L | 0.274 ± 0.045 | 0.364 ± 0.034
P71K | 0.394 ± 0.018 | 0.488 ± 0.016
P71H | 0.346 ± 0.029 | 0.376 ± 0.048
P71S | 0.329 ± 0.033 | 0.414 ± 0.042
P71D | -0.0248 ± 0.059 | 0.157 ± 0.15
